The text below walks through data of PubChem BioAssay AID485344 (National Center for Advancing Translational Sciences (NCATS), 2010).

The campaign covered roughly 340,000 compounds. About 6,900 (2%) were called active. No stated cut-off is given here; in the data, active means inhibition above about 30%; inactive means below that, where a call was filed. This is a selection; strong and weak results do not stand in their true shares. Entries without a call were filed so in the source.

Chain of UniProt P14416 (P14416 whole entry, looked up): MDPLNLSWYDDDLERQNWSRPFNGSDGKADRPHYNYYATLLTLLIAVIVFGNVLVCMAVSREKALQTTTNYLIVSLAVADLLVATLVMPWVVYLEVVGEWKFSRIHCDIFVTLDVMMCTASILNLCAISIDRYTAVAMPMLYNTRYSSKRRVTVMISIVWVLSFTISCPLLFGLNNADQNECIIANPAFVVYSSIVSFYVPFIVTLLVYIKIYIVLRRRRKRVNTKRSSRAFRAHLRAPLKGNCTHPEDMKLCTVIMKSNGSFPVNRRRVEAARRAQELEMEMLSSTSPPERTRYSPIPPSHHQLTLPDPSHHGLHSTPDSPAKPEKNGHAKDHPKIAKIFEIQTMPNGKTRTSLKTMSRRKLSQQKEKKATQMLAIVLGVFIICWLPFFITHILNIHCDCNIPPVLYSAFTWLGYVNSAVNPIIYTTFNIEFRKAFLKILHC

The target of this assay is D(2) dopamine receptor (Homo sapiens) (UniProt P14416). The assay is described as follows: HTS Assay for Allosteric Antagonists of the Human D2 Dopamine Receptor: Primary Screen for Antagonists. Further: 0% is about no effect. Conditions: HEK293 TREx D2 cells, calcium flux, dopamine EC80; at 10 µM; stronger effect = higher value. An outline of the steps:
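Calcium flux kinetic readout in an inducible HEK293 TREx D2 line plated overnight at 30 C. After 180 s compound exposure, an EC80 dopamine challenge follows with another 180 s kinetic read to detect antagonism.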
A general note: Calcium assays in cells follow changes in intracellular calcium, usually with a dye or a luminescent sensor.
Usually inhibition stands for the change of the read-out against control, counted positive when it falls. In the case of `COc1cc(C(=O)Nc2nc3nc(-c4ccccc4)cc(=O)n3[nH]2)cc(OC)c1OC`, the inhibition is -1.91%.
With `Cc1ccn2c(=O)cc(CSc3nnc(NC(=O)c4ccccc4Cl)s3)nc2c1` the figure was -0.155%; with `COc1cc(NC(=O)c2noc3c2CSc2ccccc2-3)cc(OC)c1OC`, 9.17%.
With `O=C(NC1CCCCC1)c1cc(Nc2cccc(C(F)(F)F)c2)nc2ccccc12` the figure was -4.42%.
Then `CCOC(=O)c1ccccc1NC(=O)CCOc1ccccc1`, with -2.42%.
As to `Cc1cccc(N2CCN(C(=O)NCc3noc4ccccc34)CC2)c1C`, the inhibition was -10%.
As for `COc1ccc(CNC(=O)c2cc3c(=O)[nH]c4ccccc4c3s2)cc1`, the inhibition is -9.86%.
Then `CCc1ccccc1NC(=O)c1nnn(-c2ccc(F)cc2)c1C`, with -1.52%.
With `COc1cc2ccccc2cc1C(=O)Nc1ccc2oc(-c3ccc(F)cc3)nc2c1` the figure was -2.43%; with `CC1CCN(S(=O)(=O)c2ccc3c(c2)oc(=O)n3CC(=O)NCc2ccc(F)cc2)CC1`, 1.63%; with `Cc1cc(C)cc(-n2c(SCC(=O)N3CCCCC3)nc3c([nH]c4ccccc43)c2=O)c1`, 8.66%.
With `CCOc1ccc(NC(=O)Cn2c(=O)n(Cc3ccco3)c(=O)c3oc4ccccc4c32)cc1`, the inhibition was found to be 3.39%.
With `O=C(Nc1ccc(Br)c2cccnc12)c1cccc2ccccc12` the figure was -2.22%; with `Cc1cc(C)cc(NC(=O)CCC(=O)N2Cc3ccccc3Oc3ncccc32)c1`, 1.84%; with `Cc1ccc(CCNC(=O)c2cc3sccc3n2Cc2ccc(C)cc2)cc1`, 10.3%.
With `Cc1c(Cl)cccc1-c1ccc(CNc2ccc3[nH]c(=O)[nH]c3c2)o1` the figure was 8.6%; with `Cc1c(Cl)ccc2sc(NC(=O)c3ccc(S(=O)(=O)N4CCCc5ccccc54)cc3)nc12`, 17%.
With `CCCc1cnc2c(c1SCC(=O)N(C)c1ccccc1)c(=O)n(C)c(=O)n2C` the figure was -14.8%.
Consider `COc1cccc(CC(=O)Nc2sc3c(c2C(N)=O)CCCC3)c1`, for which the inhibition is active: 39.3%.
Take `COc1ccc(-n2nc3ccc(NC(=O)c4ccc(-c5cc(Cl)ccc5Cl)o4)cc3n2)cc1`: the inhibition is -3.21%.
Then `Cc1c(NC(=O)c2cccnc2Cl)c(=O)n(-c2ccccc2)n1C`, with active: 35.9%; and `Clc1cccc(N2CCN(c3nc4ccccc4n4cnnc34)CC2)c1`, with -2.89%; and `C=CCc1ccccc1OCCSc1nc(-c2ccc(C(C)(C)C)cc2)nc2cc(=O)[nH]n12`, with -0.887%.
With `COc1ccc(NC(=O)CCc2nnc3n(C)c(=O)c4sccc4n23)cc1` the figure was -14.4%.
With `COc1ccc(-n2ccnc(NCc3ccc(Cl)cc3)c2=O)cc1` the figure was 4.19%.
With `Cc1ccccc1-c1nc(C#N)c(N2CCC(C)CC2)o1`, the inhibition is active: 30.7%.
With `CC1CN(C(=O)Nc2ccc(C(=O)NCCc3ccccc3)cc2)c2ccccc2S1` (stereo not drawn), the inhibition worked out at 6.32%.
With `CCOc1cc(-c2ccc(OC(=O)c3ccccc3F)cc2)cc(=O)c2c(C)oc(C)c12`, the inhibition is -4.21%.
Consider `CCN(Cc1ccccc1)C(=O)c1c(C)oc2ncn(C)c(=O)c12`, for which the inhibition was determined as 4.92%.
For `CCOc1ccc(C(=O)Nc2cc(-c3nc4ccccc4o3)ccc2C)cc1Cl`, the inhibition turned out to be 0.779%.
For the molecule `Cc1cc(C)nc(NS(=O)(=O)c2ccc(NC(=O)COc3ccc(Cl)cc3C)cc2)n1`, the inhibition is -10.4%.
With `O=C(CSc1nccn1Cc1ccccc1)NCc1ccc(F)cc1` the figure was -1.74%.
Then `O=C(NCc1ccc(F)cc1)c1ccc(CSCc2cccc(Cl)c2)o1`, with -19.3%; and `COCCNC(=O)Cc1ccc(NC(=O)N2CCCCc3ccccc32)cc1`, with 19.4%; and `COC(=O)c1scc(-c2ccccc2)c1S(=O)(=O)Nc1ccccc1`, with -27.4%.
With `COc1ccc(-n2c(/C=C/c3ccccc3F)nc3cc(OC)c(OC)cc3c2=O)cc1Cl` the figure was 9.22%; with `COCCNC(=O)c1cnn(-c2ccc(C)cc2C)c1C1CCN(C(=O)OC(C)(C)C)CC1`, -5.59%.
On to `Cn1cc(CN(C(=O)Nc2ccc(Cl)c(Cl)c2)C2CCCCC2)c2ccccc21`, for which the inhibition was 4.68%.
Turning to `Cc1ccc(NC(=O)CSc2ncc3c(n2)-c2ccccc2N(Cc2cccc(F)c2)S3(=O)=O)cc1F`, the inhibition came to 2.33%.
With `CCN(CC)C(=O)C1CCN(S(=O)(=O)c2ccc3c(c2)CCCN3C(C)=O)CC1` the figure was 7.04%.
Regarding `Cc1ccc(-c2cc(C(F)(F)F)n3nc(C(=O)Nc4ccc(Cl)cc4Cl)cc3n2)cc1`, the inhibition was -14.2%.
With `Cc1ccc(N2CC(NC(=O)/C=C\c3ccc4c(c3)OCO4)CC2=O)cc1C` (stereo not drawn), the inhibition came out at 8.05%.
Consider `O=C1c2ccccc2C(=O)C1(c1ccccc1)N1CCN(c2cccc(Cl)c2)CC1`, for which the inhibition was -10.4%.
Then `COC(=O)c1sccc1NC(=O)c1ccc(C)s1`, with active: 32.8%.
As to `Cc1ccc2nc(-c3ccsc3)c(Nc3ccccc3C)n2c1`, the inhibition was found to be 2.33%.
With `COc1ccccc1/C=C/c1nc(C#N)c(N2CCCCC2)o1` the figure was 2.18%; with `Cc1nc2nncn2c(N2CCN(c3ccccc3)CC2)c1C`, -2.05%.
As to `Cc1ccc(NC(=O)CC(C)S(=O)(=O)c2ccc3c(c2)NC(=O)CO3)c(C)c1` (stereo not drawn), the inhibition was -4.58%.
With `Cc1c(C(=O)Nc2cccc(-c3nnc4n3CCCCC4)c2)oc2ccccc12` the figure was active: 60%.
With `COCC(=O)Oc1c(Sc2ccc(C)cc2)c(C)nn1C(C)(C)C` the figure was 25.2%; with `COc1cc(-c2ccno2)ccc1S(=O)(=O)N1CCN(c2cc(C)ccc2C)CC1`, -1.88%; with `COc1cccc(N2CC(NC(=O)C(c3ccccc3)c3ccccc3)CC2=O)c1` (stereo not drawn), 12%.
With `CC(C)c1ccc(S(=O)(=O)c2nnn3c2nc(NCCc2ccccc2)c2sccc23)cc1` the figure was -24.3%; with `Cc1ccc(CNC(=O)c2cc3sccc3n2Cc2ccc(Cl)cc2)cc1`, 5.65%; with `CCCn1c(=O)c2sccc2n2c(CCCC(=O)NCCc3ccc(Cl)cc3)nnc12`, -3.24%.
As to `CC(CCc1ccccc1)NC(=O)Cn1ncc2c3ccccc3n(Cc3ccc(F)cc3)c2c1=O` (stereo not drawn), the inhibition was -11.7%.
For the molecule `CC(=O)Nc1ccc(S(=O)(=O)NCC2CCC(C(=O)NCCc3ccccc3)CC2)cc1` (stereo not drawn), the inhibition is -25.3%.
Then `Cc1nn(C(=O)c2cccc([N+](=O)[O-])c2C)c(C)c1S(=O)(=O)N1CCOCC1`, with 24.4%; and `Cc1ccc(NC(=O)Cc2c(C(=O)O)c(C)cn2C)cc1Cl`, with 2.71%; and `CC(C)OCCCn1c(SCc2ccccc2C#N)nc2c(sc3ccccc32)c1=O`, with -4.57%.
As to `O=C(c1ccco1)N1CCN(Cc2ccccc2F)CC1`, the inhibition was active: 80.3%.
Then `CN(C(=O)C1CCCN(c2ncnc3c2nc2n3CCCCC2)C1)c1ccccc1F` (stereo not drawn), with -1.52%.
Turning to `COc1cc(OC)c(NC(=O)CN2C(=O)CCn3nc(-c4cccn4C)cc32)cc1Cl`, the inhibition was 18.3%.
Then `CCOc1ccc(NC(=O)C(=O)NCCc2csc(-c3ccc(F)cc3)n2)cc1`, with -8.21%; and `c1ccc(-n2ncc3c(NC4CCCC4)ncnc32)cc1`, with 15.4%; and `CCc1cccc(NC(=O)Nc2ccc3c(c2)N(C)C(=O)c2ccccc2S3)c1`, with 5.67%.
With `COc1ccc(NS(=O)(=O)c2cc3[nH]c(=O)c(=O)[nH]c3cc2C)cc1Cl` the figure was 17%; with `CCOc1ccc(/C=C/c2nc(C#N)c(N3CCN(c4ccc(OC)cc4)CC3)o2)cc1`, 4.73%; with `CCC(=O)N1CCc2cc(Br)cc(S(=O)(=O)CCC(=O)NCCc3ccc(OC)c(OC)c3)c21`, 3.28%.
Then `Cn1cc(S(=O)(=O)N2CCCCCC2)cc1C(=O)N1CCN(c2ccc(F)cc2)CC1`, with -5.31%.
Consider `Cc1cc(OCC(=O)Nc2ccc(-c3nc4cc(Cl)ccc4o3)cc2)cc(C)c1Cl`, for which the inhibition was -0.562%.
With `Cn1c(=O)c(NCCO)c2c3c(cccc31)C(=O)c1ccccc1-2` the figure was active: 82.4%; with `NS(=O)(=O)c1ccc(CCNC(=O)C2COc3ccccc3C2)cc1` (stereo not drawn), 0.362%; with `CCc1ccc(C2CC(=O)c3c([nH]c(C(=O)OCC4CCCCC4)c3C)C2)cc1` (stereo not drawn), -0.874%.
Turning to `O=C(COc1ccccc1)NCc1ccc2c(c1)CCN2C(=O)c1ccc(F)cc1`, the inhibition was -5%.
On to `Cc1ccc(Cn2c(=O)c3cccnc3n(CC(=O)Nc3cccc(C(F)(F)F)c3)c2=O)cc1`, for which the inhibition is -14.1%.
As to `Cc1ccc(-n2ncc3c(N4CCCCCC4)ncnc32)cc1`, the inhibition is -5.87%.
Take `COc1cc(NC(=O)CCn2c(-c3ccccc3)cc(C(C)=O)c2C)cc(OC)c1`: the inhibition was -0.921%.
On to `COc1ccc(NC(=O)C(NS(=O)(=O)c2ccc3c(c2)CCCC(=O)N3)C(C)C)c(OC)c1` (stereo not drawn), for which the inhibition was -8.54%.
Turning to `Cc1c(Cl)cccc1NC(=O)CSc1ncnc2c1sc1ccccc12`, the inhibition was found to be 14.9%.
Turning to `Cc1cc(=O)oc(C)c1C(=O)NCCCN1CCN(c2ccccc2F)CC1`, the inhibition is active: 46.8%.
Then `Cc1cccc(CNC(=O)c2oc3c(c2C)-c2nn(Cc4ccccc4Cl)cc2CC3)c1`, with 1.62%; and `Cc1cc(NC(=O)c2ccc(Br)o2)cc(-c2nc3ccccc3o2)c1O`, with -11.1%.
With `Cc1ccc(-n2nc(C(=O)N3CCN(c4cc(Cl)ccc4C)CC3)c(=O)n(C)c2=O)cc1` the figure was -19.9%; with `CCCCNC(=O)C1CCCN(Cc2nc(-c3ccc(Cl)cc3)oc2C)C1` (stereo not drawn), -15.5%.
`CCc1ccc(C(=O)c2cn(CC(=O)Nc3ccc(F)c(F)c3)c3cc(OC)c(OC)cc3c2=O)cc1`: the inhibition is -9.02%.
With `CC(C)CCNC(=O)c1cccc(Nc2nc3ccccc3n3nnnc23)c1` the figure was 20.2%; with `CCCCSCCCNC(=O)c1ccc2c(c1)N(CC)C(=O)c1ccccc1S2=O` (stereo not drawn), active: 30.3%.
With `COc1ccc(Cl)cc1NC(=O)c1ccc2nc(Cc3ccccc3)oc2c1` the figure was -4.46%; with `CCCC(=O)Nc1cc(C)c(O)c(-c2nc3ncccc3o2)c1`, -23.8%.
Consider `Cc1nc2c(-c3ccccc3)c(C)nn2c(C)c1CCC(=O)NC(C)c1ccccc1` (stereo not drawn), for which the inhibition is -10.6%.
Regarding `COc1cccc(CNC(=O)C2CCCN(S(=O)(=O)c3ccc4c(ccn4C)c3)C2)c1` (stereo not drawn), the inhibition was 17.7%.
Consider `CCC(C(=O)Nc1ccc(C(=O)OC)cc1)n1c(=O)c(-c2ccccc2NC(C)=O)nc2ccccc21` (stereo not drawn), for which the inhibition is 10.7%.
For the molecule `CCOC(=O)c1cccc(NC(=O)c2oc3c(c2C)-c2[nH]ncc2CC3)c1`, the inhibition amounted to 8.57%.
For the molecule `CCCN(C(=O)c1cc2c(s1)-c1ccccc1OC2)c1ccccc1F`, the inhibition is -6.48%.
Then `COc1ccc(NC(=O)CC2C(=O)N(c3ccc(F)cc3)C(=O)N2Cc2cccnc2)cc1` (stereo not drawn), with -5.73%; and `COc1cc(CN(C(=O)Nc2ccccc2)c2ccccn2)cc(OC)c1OC`, with -0.517%; and `CCc1ccccc1NS(=O)(=O)c1ccc2[nH]cc(C(=O)N3CCCCC3)c(=O)c2c1`, with -16.3%.
